Measured values: paper doi:10.1101/2025.11.26.690757 (bioRxiv, 2025)

Biological target: dominant-negative Gαi1 (G203A, A326S) (human, UniProt P63096, G203A | A326S)
Assay: cryo-EM structure

B1: human GPR17, active-conformation construct KC165 (wild type, full length 1-367) (receptor)
chain: MSKRSWWAGSRKPPREMLKLSGSDSSQSMNGLEVAPPGLITNFSLATAEQCGQETPLENMLFASFYLLDFILALVGNTLALWLFIRDHKSGTPANVFLMHLAVADLSCVLVLPTRLVYHFSGNHWPFGEIACRLTGFLFYLNMYASIYFLTCISADRFLAIVHPVKSLKLRRPLYAHLACAFLWVVVAVAMAPLLVSPQTVQTNHTVVCLQLYREKASHHALVSLAVAFTFPFITTVTCYLLIIRSLRQGLRVEKRLKTKAVRMIAIVLAIFLVCFVPYHVNRSVYVLHYRSHGASCATQRILALANRITSCLTSLNGALDPIMYFFVAEKFRHALCNLLCGKRLKGPPPSFEGKTNESSLSAKSEL
- binding result: binds
